# According to PubChem BioAssay AID1745853 (National Center for Advancing Translational Sciences (NCATS), 2022):
# The list shows a part of the results. Shown are side measurements of this screen, not its main read-out; they come without a call.
# What was measured:
# Assay in all cases: Primary Screen for Target Class Profiling of Small Molecule Inhibitors of Methyltransferases
# [1] = biological target: Glycine N-methyltransferase (Homo sapiens) (UniProt Q14749); conditions: purified enzyme, MTase-Glo SAH luminescence; measured here: GNMT inhibition; at 40 µM; stronger effect = lower value
# Procedure, shortened: (§1)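 Each enzyme was assayed with SAM and its substrate. SAH formation detected by MTase-Glo luminescence; single-point 40 uM screen[…].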
# [2] = biological target: Guanidinoacetate N-methyltransferase (Homo sapiens) (UniProt Q14353); conditions: purified enzyme, MTase-Glo SAH luminescence; measured here: GAMT inhibition; at 40 µM; stronger effect = lower value
# Procedure, shortened: as §1
# [3] = biological target: Histamine N-methyltransferase (Homo sapiens) (UniProt P50135); conditions: purified enzyme, MTase-Glo SAH luminescence; measured here: HNMT inhibition; at 40 µM; stronger effect = lower value
# Procedure, shortened: as §1
# [4] = biological target: Nicotinamide N-methyltransferase (Homo sapiens) (UniProt P40261); conditions: purified enzyme, MTase-Glo SAH luminescence; measured here: NNMT inhibition; at 40 µM; stronger effect = lower value
# Procedure, shortened: as §1
# [5] = biological target: Phenylethanolamine N-methyltransferase (Homo sapiens) (UniProt P11086); conditions: purified enzyme, MTase-Glo SAH luminescence; measured here: PNMT inhibition; at 40 µM; stronger effect = lower value
# Procedure, shortened: as §1
# % is scaled to controls: 0 for no effect and ±100 for the full control effect.
SMILES,"activity change, negative = inhibition [1]","activity change, negative = inhibition [2]","activity change, negative = inhibition [3]","activity change, negative = inhibition [4]","activity change, negative = inhibition [5]"
COc1cccc(CNC(=O)c2ccc3c(=O)nc4c(-c5ccccc5F)n[nH]n4c3c2)c1,-21.3%,-4.2%,3.88%,-1.91%,-0.608%
COc1ccc(CC(NC(C)=O)C(=O)O)cc1 (centres undefined),-1.5%,3.33%,1.55%,-8.34%,-0.573%
CC1OC(OC2C(CO)OC(OCC3OC(OC(=O)C45CCC(C)(C)CC4C4=CCC6C7(C)CCC(OC8OC(C(=O)O)C(O)C(OC9OC(CO)C(O)C(O)C9O)C8O)C(C)(C)C7CCC6(C)C4(C)CC5)C(O)C(O)C3O)C(O)C2O)C(O)C(O)C1O (centres undefined),3.96%,6.1%,9.68%,-3.22%,3.82%
C[C@@H]1CCCN1CCc1cc2cc(-c3ccc(C#N)cc3)ccc2o1,-9.98%,0.837%,-35.1%,-18.8%,-5.75%
COCCCNC(=O)CN1CCCc2nc(-c3ccncc3)ncc2C1=O,-5.7%,-1.85%,-1.04%,-2.8%,0.405%
COc1ccc(OC)c2c1cc1n2CC(C)(C(=O)NC2CCCCC2C)N(Cc2cccnc2)C1=O (centres undefined),-3.64%,2.95%,3.95%,-3.25%,-4.14%
COc1cc(Cl)c(CN2CCC[C@H]2C(=O)O)cc1OC,-20.9%,-8.35%,-4.96%,-13.4%,2.76%
CC(C)(C)CC(=O)N1CC[C@H](NC(=O)NC2CCCCC2)[C@H]1C(=O)N[C@H](Cc1c[nH]c2ccccc12)C(N)=O,-1.9%,-2.25%,0.459%,0.114%,1.84%
COCCNC(=O)C[C@@H]1O[C@H](CNS(=O)(=O)c2ccc(C)cc2)[C@@H](O)[C@H]1O,-0.37%,0.977%,1.16%,2.56%,4.96%
Cn1ccnc1-c1ccc(N2CCCC(CO)(CCOc3ccccc3)C2)nn1 (centres undefined),-4.34%,-4.74%,-1.72%,-16%,-3.38%
CC(C)[N+]1(C)C2CCC1CC(OC(=O)C(CO)c1ccccc1)C2 (centres undefined),0.025%,-15.6%,-5.71%,-20.6%,-17.6%
CC(C)[C@@H]1CN(C(=O)CCn2ccc(=O)[nH]c2=O)C[C@H]1NC(=O)N(C)C,2.31%,-1.83%,3.11%,3.3%,0.357%
CC1C(=O)Nc2ccc(S(=O)(=O)N3CCN(c4cccc(Cl)c4)CC3)cc2NC1=O (centres undefined),-5.8%,2.93%,-4.3%,-6.17%,-4.9%
C[C@H]1CC[C@@H]2N(C1)C[C@@H]1[C@H]([C@@H](O)[C@H](O)[C@]3(O)[C@H]1C[C@@]14OC5(O)[C@@H](C[C@@H](O)[C@@H]31)[C@]4(C)CC[C@@H]5O)[C@]2(C)O,0.867%,1.53%,7.71%,-9.46%,-2.27%
CC1CCC2C(=CCC(O)C2(C)C)C1(C)Cc1c(O)cc(CO)c(C=O)c1O (centres undefined),4.63%,11.5%,8.52%,-11.5%,4%
CC(CCC1(O)OC2CC3C4CC=C5CC(O[C@@H]6O[C@H](CO)[C@@H](O[C@@H]7O[C@H](CO)[C@@H](O)[C@H](O)[C@H]7O)[C@H](O)[C@H]6O[C@@H]6O[C@@H](C)[C@H](O)[C@@H](O)[C@H]6O)CCC5(C)C4CCC3(C)C2C1C)CO[C@@H]1O[C@H](CO)[C@@H](O)[C@H](O)[C@H]1O (some centres undefined),3.5%,1.46%,6.8%,-9.37%,6.35%
CNCCC(Oc1ccc(C(F)(F)F)cc1)c1ccccc1 (centres undefined),-7.65%,5%,-2.27%,-7.95%,6.25%
Cc1cc(Cl)ccc1N1C(=O)c2cc(-c3ccccc3)nn2CC1(C)C(=O)NCc1ccccc1 (centres undefined),7.71%,1.28%,8.88%,7.39%,2.91%
CC1=CC(=O)CC(C)(C)C1CO[C@@H]1O[C@H](CO)[C@@H](O)[C@H](O)[C@H]1O (some centres undefined),1.68%,-1.36%,9.45%,-11.7%,4.29%
CC(=O)Nc1c2n(c3ccccc13)CC(C)(C(=O)NC1CCCCCC1)N(Cc1ccco1)C2=O (centres undefined),1.04%,0%,7.89%,-1.14%,5.09%
Cc1ccc(Cn2c(=O)c3ccc(C(=O)NC4CCCC4)cc3n3c(=O)n(Cc4ccccc4)nc23)cc1,4.48%,0.104%,7.81%,3.9%,7.11%
CN(C(=O)c1cn2c(-c3ccc(C(F)(F)F)cc3)cnc2cn1)c1ccc(C#N)cc1,,3.21%,,-13.1%,-3.89%
OC1(c2csc(CN3CCOCC3)n2)CCN(C2CCCC2)CC1,-1.91%,3.71%,-11.7%,1.22%,13.3%
O=C1CN(Cc2c(F)cccc2Cl)S(=O)(=O)c2ccccc2N1Cc1ccccc1,12.7%,3.24%,13.1%,2.98%,10.2%
CCCCN1C(=O)c2cc3ccc(OC)cc3n2CC1(C)C(=O)NC1CCCC1 (centres undefined),-7.03%,2.08%,-1.43%,-5.63%,-3.16%
O=C(c1ccc(Cl)cc1)N1CCN(c2ccnc3cc(Cl)ccc23)CC1,-18.2%,-5.76%,-17.4%,-50.3%,-7.22%
CN(C)c1nccnc1OC1CCN(S(=O)(=O)Cc2ccccc2)C1 (centres undefined),-6.15%,-6.68%,-6.9%,-8.88%,-4.63%
CCCn1c(=O)c2ccc(C(=O)NCC(C)C)cc2n2c(=O)n(CC(=O)Nc3cccc(Cl)c3)nc12,4.14%,1.62%,4.27%,-3.54%,-1.1%

SMILES,"activity change, negative = inhibition [1]","activity change, negative = inhibition [2]","activity change, negative = inhibition [3]","activity change, negative = inhibition [4]","activity change, negative = inhibition [5]"
CCC(C)NC(=O)c1ccc2c(=O)n(C(C)C)c3nn(CC(=O)Nc4ccccc4)c(=O)n3c2c1 (centres undefined),-1.44%,3.09%,-3.31%,-2.91%,-0.069%
COc1cc2nc(N3CCN(C)CC3)nc(NC3CCN(Cc4ccccc4)CC3)c2cc1OC,-6.46%,-8.51%,-71%,-24.3%,-5.24%
OCC1(Cc2ccccc2F)CCCN(c2nnnn2-c2ccccc2)C1 (centres undefined),-9.01%,-8.31%,-4.08%,-18.5%,-7.43%
CC(C)CC1NC(=O)C(C)NC(=O)C(CC(C)C)OC(=O)CCCNC1=O (centres undefined),4.03%,2.78%,8.33%,-9.89%,-2.3%
CC(C)Cn1c(=O)c2ccc(C(=O)NC3CCCCC3)cc2n2c(=O)n(CC(=O)c3ccccc3)nc12,5.58%,0.973%,7.35%,0.231%,4.25%
CCn1c(=O)c2c(cc(C)n2C)n(CC(=O)Nc2ccccc2C)c1=O,-2.77%,-1.4%,-0.309%,-8.24%,-1.82%
COc1ccc(-c2nnn3c2nc(N2CCOCC2)c2ccccc23)cc1,-22%,-6.2%,-16.5%,-19.6%,-32.7%
CCNC(=O)[C@H]1CCCN1C(=O)[C@H](CCCN=C(N)N)NC(=O)[C@H](CC(C)C)NC(=O)[C@H](CC(C)C)NC(=O)[C@@H](Cc1ccc(O)cc1)NC(=O)[C@H](CO)NC(=O)[C@@H](Cc1c[nH]c2ccccc12)NC(=O)[C@H](Cc1cnc[nH]1)NC(=O)[C@@H]1CCC(=O)N1,,9.91%,,-9.26%,-4.07%
COc1ccccc1CNC(=O)C1(C)Cn2c(cc3ccccc32)C(=O)N1CCC(C)C (centres undefined),2.05%,4.59%,8.1%,3.23%,1.06%
O=C1NCCC[C@@H]1NC(=O)[C@H]1CN(C(=O)c2cccc(F)c2)CCN1C(=O)c1cccs1,-2.07%,-2.91%,-0.039%,-12%,-21.5%
Cc1cccc(NC(=O)Cn2c(=O)oc3cc(S(=O)(=O)NCc4ccccc4)ccc32)c1C,-4.73%,1.93%,-0.909%,3.52%,-5.88%
COC(=O)c1ncn2c1C(=O)N(Cc1ccccc1)C(C)(C(=O)NC1CCCC1)C2 (centres undefined),5.41%,0%,0.292%,3.86%,-0.49%
CSC(Cc1ccc(Cl)cc1)C(=O)Nc1ccc(Cl)cc1C(=O)O (centres undefined),,-2.45%,,-18.3%,5.61%
CN1C(=O)N(c2cc(Cl)cc(Cl)c2)C(=O)[C@@]1(C)Cc1ccc(Br)cc1,3.17%,4.22%,7.29%,-14.8%,-0.742%
CC(=O)/C=C/C1C(C)CC(O[C@@H]2O[C@H](CO)[C@@H](O)[C@H](O)[C@H]2O)CC1(C)C (some centres undefined),0.673%,1.54%,9.28%,-12.2%,2.77%
O=C(CCc1nnc2n(CCc3ccccc3)c(=O)c3ccccc3n12)N1CCC(N2CCCCC2)CC1,-4.83%,3.78%,-69.8%,4.7%,-4.27%
CCc1noc([C@@H]2CC(F)(F)CN2C(=O)c2ccn(CC)n2)n1,-2.25%,-0.628%,0.16%,-2.4%,0.552%
CN1C(=O)c2cc(C(=O)NCCCN3CCc4ccccc4C3)nn2CC1(C)C(=O)NC1CCCC1 (centres undefined),-14.3%,0%,-7.06%,-7.71%,-9.82%
CCCNC(=O)N(C1CCOCC1)C1CCN(C(=O)Cc2cccnc2)CC1,-0.955%,0.634%,-0.161%,4.24%,14.6%
O=C(Cc1cccc(Cl)c1)NCCNC(=O)c1cccc(-c2ccsc2)c1,-3.56%,-3.89%,0.35%,-4.62%,-3.37%
O=C(c1ccc(F)cc1)N1CCCC(C(=O)N2CCCC2c2nc3ccncc3[nH]2)C1 (centres undefined),-5.28%,-6.59%,-2.29%,-12.3%,-10.5%
CC1c2cccn2CCN1C(=O)Nc1ccc(F)c(Cl)c1 (centres undefined),-2.27%,0%,5.78%,-6.96%,-0.069%
Cc1ccc(NC(=O)Cn2nc3n(C)c(=O)c4ccc(C(=O)NC5CCCCC5)cc4n3c2=O)cc1F,1.94%,0.864%,1.38%,6.06%,3.85%
CC(=O)N1CCn2c(nn(-c3ccncc3)c2=O)C1,-4.31%,-7.25%,-0.045%,-13.2%,-6.7%
CCCN1C(=O)c2c(C(=O)NCc3cccc(F)c3)ncn2CC1(C)C(=O)NCc1ccc(C)cc1 (centres undefined),-2.65%,0.97%,4.29%,4.28%,6.05%
Cc1nn(C)c(C)c1CNC(=O)C1CC(=O)N(c2n[nH]c3cccc(F)c23)C1 (centres undefined),-4.74%,-1.52%,2.12%,-3.79%,-3.39%
COc1ccc(OC)c(S(=O)(=O)N2CCCOCCNC(=O)[C@@H]3CCCC[C@@H]32)c1,-5.28%,-2.39%,0.802%,-8.81%,6.46%
